Experimental data: ChEMBL document CHEMBL5308541, “MAIP: An Open-Source Tool to Enrich High-Throughput Screening Output and Identify Novel, Druglike Molecules with Antimalarial Activity” (ACS Med Chem Lett, 2023)
The whole screen tested about 150,000 compounds, of which about 540 (0.36%) showed an effect of 50% or more. This is one part of the list.

test system: Plasmodium falciparum; assay: Primary screen in NF54 nanoGlo assay, in single point, at 2uM, 72h; a lower Z score goes with more inhibition; type: functional, Erythrocyte; conditions: timepoint 72 hour

| Structure (SMILES) | % Inhibition | Z score |
| --- | --- | --- |
| COc1ccc2nc(NCc3ccnc(O[C@H]4CCOC4)c3)ccc2c1 | -4% | 0.65 |
| CC[C@H]1CCCCN1Cc1ccc(C(=O)NCc2nc3ccccc3s2)c(=O)[nH]1 | -12% | 2.06 |
| COc1ccccc1Nc1nc(N)nc(COc2ccc(-c3nnco3)cc2)n1 | -23% | 3.44 |
| COC(C(=O)Nc1ccc2[nH]c(-c3ccccc3)nc2c1)C1CCOC1 (configuration not stated) | -5% | 0.74 |
| CCc1noc(C2CCC(NCCc3cccc4[nH]ccc34)CC2)n1 (configuration not stated) | -10% | 1.81 |
| CC(C)(CNC(=O)c1nnsc1NC(=O)OC(C)(C)C)NC(=O)OC(C)(C)C | -9% | 1.63 |
| Oc1ccc(C(c2c(-c3ccccc3)[nH]c3ccccc23)c2c(-c3ccccc3)[nH]c3ccccc23)cc1 | -7% | 1.16 |
| Cc1cnccc1NCCNc1nc(C(C)(C)C)nc2c1cnn2C | 20% | -3.05 |
| CN(CC(N)=O)C[C@H]1CN(c2cncc(-c3ccccc3)n2)CCO1 | -15% | 2.53 |
| Cc1ccnc(NCC2CCN(Cc3ccccc3)CC2)n1 | -5% | 1.17 |
| O=S1(=O)CC[C@H](NCCc2ccc(OCCN3CCCC3)cc2)c2cc(F)ccc21 | 1% | -0.18 |
| Cn1ncc2c(N)nc(NCCOc3ccc(C#N)cc3)nc21 | -9% | 1.56 |
| CC(C)(C)OC(=O)N1CCC(CC(=O)N2C3CCC2CC(Oc2ccncc2)C3)CC1 (configuration not stated) | -2% | 0.31 |
| N#Cc1ccc(N2C[C@H](COCC3CC3)C3(CCN(Cc4cccc(O)c4)CC3)C2)cc1C(F)(F)F | 82% | -14.34 |
| c1ccc(N2CCN(C[C@H]3CCCN(c4ncnc5[nH]ccc45)C3)CC2)nc1 | -6% | 1.29 |
| Cc1cc2c(NCCNC3CCCCCC3)nccn2n1 | 10% | -1.53 |
| CN1CCO[C@H](C(=O)N(CCO)Cc2ccc(Cl)c(Cl)c2)C1 | -5% | 0.7 |
| CC(C)Nc1cc(-c2cccc(C(=O)NC3(C(N)=O)CCCC3)c2)nc(N)n1 | -3% | 0.66 |
| CCn1cc(-c2cccc(C(=O)NCCNc3ccncc3C)c2)cn1 | 16% | -2.73 |
| CCN(C(=O)c1cc(C)nc2cc(F)ccc12)[C@H]1CCOC(C)(C)C1 | 8% | -1.44 |
| O=C1NCC[C@@H]1Oc1cc(Br)cc(F)c1F | 1% | -0.18 |

| Structure (SMILES) | % Inhibition | Z score |
| --- | --- | --- |
| CC(=O)N1CCN(Cc2cccc(NCc3n[nH]c4ccccc34)c2)CC1 | -4% | 0.79 |
| COc1ccc(-c2[nH]c3ccccc3c2CCC(=O)N2C[C@@H](C)[C@H](C(N)=O)C2)c(OC)c1 | -8% | 1.27 |
| O=C1[C@@H](Nc2ncc(Br)cn2)CCCN1CCO | -4% | 0.86 |
| CCN(CCCN1CCCC1)C(=O)NCCc1c[nH]c2cc(F)ccc12 | -4% | 0.7 |
| O=S1(=O)CC[C@H](CNC2CCN(c3cccc(-c4cnco4)c3)CC2)C1 | -4% | 0.61 |
| CCOc1cccnc1C(=O)NCc1ccc(C(=O)O)c(C2CC2)n1 | 0% | -0.06 |
| CN(C)C(=O)c1ccc(S(=O)(=O)N(c2ccsc2)C2CCCCC2)cc1 | -2% | 0.39 |
| O=C1CC[C@]2(CCCN(Cc3cccc(F)c3C(F)(F)F)C2)CN1C1CC1 | -18% | 3.2 |
| Cn1cc(Nc2cccc(C(=O)N3CCCN(CC4CCCCC4)CC3)c2)cn1 | 15% | -2.68 |
| Cc1ccc(-c2cc(C(=O)N3CCC(Nc4ncccn4)CC3)[nH]n2)o1 | 6% | -1.09 |
| O=C(Nc1cccc(-c2nc3ccccc3[nH]2)c1)C1(C(F)(F)F)CCOCC1 | 1% | -0.25 |
| OC12CCCCC1CN(C1CCN(c3ccc(-n4cccn4)cc3)CC1)CC2 (configuration not stated) | -8% | 1.48 |
| CC(C)(C)OC(=O)NC1CCN(c2nccc3cc(N)ccc23)CC1 | 8% | -1.14 |
| O=C(O)c1ccc(NS(=O)(=O)c2cnc(C3CC3)s2)cc1C(F)(F)F | -1% | 0.2 |
| CCN1CCC[C@@H]1CNc1nnc(-c2cn(C)c3ccccc23)o1 | 1% | -0.21 |
| NCCN1C(=O)CCC2CN(C(=O)c3nc4ccccn4c3F)CCC21 (configuration not stated) | 3% | -0.53 |
| CC1CN(c2ccc(Nc3nc4ccccc4s3)cn2)CC(C)O1 (configuration not stated) | 0% | -0.09 |
| COc1ccc(-c2ncc(C(=O)N3CCC[C@@](O)(C(F)(F)F)CC3)s2)cc1 | -12% | 1.9 |
| O=C(c1c[nH]c2ncc(Br)cc12)N1CC[C@H](CN2CCCC2)C1 | -15% | 2.59 |
| Cc1cc(CN2C[C@@H](F)C[C@H]2CNC(=O)c2cc(-c3ccccc3)[nH]n2)on1 | 1% | -0.2 |
